# Source: patent publication US11207320B2, “Compositions and methods for cancer expressing PDE3A or SLFN12” (The Broad Institute, Inc., priority 2015, dated 2021)
# Further values from the same series stand in other lists.
# Tested on: 766 cancer cell lines
# Assay: Large-scale cell-line viability measurements (766 cancer cell lines, 72 h, AUC)
# Assay type: cell-based, human
# Protocol: Cell lines were treated for 72 hours with concentrations ranging from 66.4 μM-2 nM in 2-fold step dilutions.
# To characterize cellular sensitivity to DNMDP further, 766 genomically characterized cancer cell lines were screened for DMNDP sensitivity at concentrations ranging from 66.4 μM to 2 nM in 2-fold dilution steps for 72 hours. From these cell lines, 22 cell lines were categorized as sensitive with a robust Z-score lower than −4, which represented multiple lineages including multiple melanoma cell lines, amongst others (Table 1).
# The sensitivity of […] cancer cell lines (CCLs) was measured drawn from 23 different lineages to DNMDP. Each cell line was plated in its preferred media in white opaque 1536-plates at a density of 500 cells/well. After incubating overnight, DNMDP was added by acoustic transfer at 16 concentrations ranging from 66.4 μM-2 nM in 2-fold steps in duplicate (Labcyte Echo 555, Labcyte Inc., Sunnyvale, Calif.). After 72 hours treatment, cellular ATP levels were measured as a surrogate for viability (CELLTITERGLO®, Promega Corporation, Madison, Wis.) according to manufacturer's protocols using a ViewLux Microplate Imager (PerkinElmer, Waltham, Mass.) and normalized to background (media-only) and vehicle (DMSO)-treated control wells.
# Concentration response curves were fit using nonlinear fits to 2- or 3-parameter sigmoid functions through all 16 concentrations with the low-concentration asymptote set to the DMSO-normalized value, and an optimal 8-point dose curve spanning the range of compound-sensitivity was identified. The area under the 8-point dose curve (AUC) was computed by numeric integration as a metric for sensitivity for further analysis. Similar sensitivity measurements have been obtained for a collection of 480 other compounds, enabling analyses that identify cell lines responding uniquely to DNMDP (see Broad Institute Cancer Therapeutics Response Portal, a dataset to identify comprehensively relationships between genetic and lineage features of human cancer cell lines and small-molecule sensitivities for complete list of compounds).
# [1] = cell line LN229 (CENTRAL NERVOUS SYSTEM)
# [2] = cell line LS123 (LARGE INTESTINE)
# [3] = cell line LS180 (LARGE INTESTINE)
# [4] = cell line LS411N, LARGE INTESTINE, 72 hours
# [5] = cell line LS513, LARGE INTESTINE, 72 hours
# [6] = cell line LS1034 (LARGE INTESTINE)
# [7] = cell line MC116, HAEMATOPOIETIC AND LYMPHOID TISSUE, 72 hours
# [8] = cell line MDAMB361, BREAST, 72 hours
# [9] = cell line MDST8 (LARGE INTESTINE)
# [10] = cell line ME1 (HAEMATOPOIETIC AND LYMPHOID TISSUE)
# [11] = cell line MEC1, HAEMATOPOIETIC AND LYMPHOID TISSUE, 72 hours
# [12] = cell line MELJUSO, SKIN, 72 hours
# [13] = cell line MHHCALL3 (HAEMATOPOIETIC AND LYMPHOID TISSUE)
# [14] = cell line MHHCALL4, HAEMATOPOIETIC AND LYMPHOID TISSUE, 72 hours
# [15] = cell line MHHNB11, AUTONOMIC GANGLIA, 72 hours
# [16] = cell line MOLM13, HAEMATOPOIETIC AND LYMPHOID TISSUE, 72 hours
# [17] = cell line MOLP2 (HAEMATOPOIETIC AND LYMPHOID TISSUE)
# [18] = cell line MOLP8 (HAEMATOPOIETIC AND LYMPHOID TISSUE)
# [19] = cell line NAMALWA (HAEMATOPOIETIC AND LYMPHOID TISSUE)
# [20] = cell line NB1 (AUTONOMIC GANGLIA)
# [21] = cell line NCIH28, PLEURA, 72 hours
# [22] = cell line NCIH358, LUNG, 72 hours
# [23] = cell line NCIH441, LUNG, 72 hours
structure (smiles),measurement,setting,value
"CCN(CC)c1ccc(C2=NNC(=O)CC2C)cc1[N+](=O)[O-] (centres unmarked) [DNMDP, 6-(4-(diethylamino)-3-nitrophenyl)-5-methyl-4,5-dihydropyridazin-3(2H)-one]",DNMDP AUC,[1],6.9883
same,Robust Z-score,[1],0.3712
same,DNMDP AUC,cell line LOXIMVI (SKIN),7.058
same,Robust Z-score,cell line LOXIMVI (SKIN),0.4444
same,DNMDP AUC,[2],6.8175
same,Robust Z-score,[2],0.1919
same,DNMDP AUC,[3],7.0225
same,Robust Z-score,[3],0.4071
same,DNMDP AUC,[4],7.2279
same,Robust Z-score,[4],0.6227
same,DNMDP AUC,[5],7.3199
same,Robust Z-score,[5],0.7193
same,DNMDP AUC,[6],6.6323
same,Robust Z-score,[6],−0.002467
same,DNMDP AUC,[7],7.5146
same,Robust Z-score,[7],0.9236
same,DNMDP AUC,cell line MCAS (OVARY),6.8199
same,Robust Z-score,cell line MCAS (OVARY),0.1944
same,DNMDP AUC,cell line MDAMB231 (BREAST),6.7222
same,Robust Z-score,cell line MDAMB231 (BREAST),0.0919
same,DNMDP AUC,[8],9.2909
same,Robust Z-score,[8],2.788
same,DNMDP AUC,cell line MDAMB435S (SKIN),6.9227
same,Robust Z-score,cell line MDAMB435S (SKIN),0.3024
same,DNMDP AUC,cell line MDAMB468 (BREAST),6.9388
same,Robust Z-score,cell line MDAMB468 (BREAST),0.3193
same,DNMDP AUC,[9],6.8209
same,Robust Z-score,[9],0.1955
same,DNMDP AUC,[10],6.7039
same,Robust Z-score,[10],0.07269
same,DNMDP AUC,[11],7.376
same,Robust Z-score,[11],0.7782
same,DNMDP AUC,cell line MELHO (SKIN),6.9769
same,Robust Z-score,cell line MELHO (SKIN),0.3592
same,DNMDP AUC,[12],7.1877
same,Robust Z-score,[12],0.5805
same,DNMDP AUC,cell line MESSA (SOFT TISSUE),7.0401
same,Robust Z-score,cell line MESSA (SOFT TISSUE),0.4256
same,DNMDP AUC,cell line MFE319 (ENDOMETRIUM),6.7242
same,Robust Z-score,cell line MFE319 (ENDOMETRIUM),0.094
same,DNMDP AUC,[13],6.5324
same,Robust Z-score,[13],−0.1073
same,DNMDP AUC,[14],8.031
same,Robust Z-score,[14],1.466
same,DNMDP AUC,cell line MHHES1 (BONE),6.5353
same,Robust Z-score,cell line MHHES1 (BONE),−0.1043
same,DNMDP AUC,[15],8.8255
same,Robust Z-score,[15],2.3
same,DNMDP AUC,cell line MIAPACA2 (PANCREAS),6.8607
same,Robust Z-score,cell line MIAPACA2 (PANCREAS),0.2373
same,DNMDP AUC,cell line MKN1 (STOMACH),7.0915
same,Robust Z-score,cell line MKN1 (STOMACH),0.4795
same,DNMDP AUC,cell line MKN45 (STOMACH),6.6662
same,Robust Z-score,cell line MKN45 (STOMACH),0.03312
same,DNMDP AUC,cell line MKN74 (STOMACH),6.5911
same,Robust Z-score,cell line MKN74 (STOMACH),−0.04571
same,DNMDP AUC,[16],7.646
same,Robust Z-score,[16],1.062
same,DNMDP AUC,[17],6.928
same,Robust Z-score,[17],0.3079
same,DNMDP AUC,[18],6.6347
same,Robust Z-score,[18],5.248E−05
same,DNMDP AUC,cell line MORCPR (LUNG),6.9126
same,Robust Z-score,cell line MORCPR (LUNG),0.2917
same,DNMDP AUC,cell line MSTO211H (PLEURA),6.5871
same,Robust Z-score,cell line MSTO211H (PLEURA),−0.04991
same,DNMDP AUC,[19],6.5738
same,Robust Z-score,[19],−0.06387
same,DNMDP AUC,[20],6.9466
same,Robust Z-score,[20],0.3274
same,DNMDP AUC,[21],7.3081
same,Robust Z-score,[21],0.7069
same,DNMDP AUC,cell line NCIH226 (LUNG),6.6624
same,Robust Z-score,cell line NCIH226 (LUNG),0.02913
same,DNMDP AUC,cell line NCIH292 (LUNG),6.8954
same,Robust Z-score,cell line NCIH292 (LUNG),0.2737
same,DNMDP AUC,cell line NCIH322 (LUNG),6.9254
same,Robust Z-score,cell line NCIH322 (LUNG),0.3052
same,DNMDP AUC,[22],7.1753
same,Robust Z-score,[22],0.5675
same,DNMDP AUC,[23],7.1284
same,Robust Z-score,[23],0.5183
same,DNMDP AUC,cell line NCIH460 (LUNG),6.8048
